# Data: the supplement of paper PMC4604168 (melanoma cell lines)
# The list shows a part of the results. Most values come without repeats; read them as rough.
# Key:
# Experiment in all cases: cell count relative to DMSO control; melanoma cells; higher = more viable cells
# Conditions in all cases: library dose: low library concentration; 72 h
# WM115 = tested on: WM115
# WM1716 = tested on: WM1716
# WM1745 = tested on: WM1745
# WM3526 = tested on: WM3526
# WM3619 = tested on: WM3619
# WM451Lu = tested on: WM451Lu
# 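Also: cell number obtained by counting DAPI-stained nuclei in high-throughput microscope images with image analysis software, screen run in 1,536-well plates.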
smiles,measurement,setting,value
"O=C(Nc1cccc(Cl)c1)Nc1ncc(CCNc2ncnc3ccsc23)s1 + CN(NC(=O)CC(=O)NN(C)C(=S)c1ccccc1)C(=S)c1ccccc1 [STA4783] (first compound 0.0008 µM, partner dose 0.006 µM)",cell count,WM115,55.7%
same,cell count,WM1716,69.4%
same,cell count,WM1745,52%
same,cell count,WM3526,90.9%
same,cell count,WM3619,92.3%
same,cell count,WM451Lu,95.2%
"O=C(Nc1cccc(Cl)c1)Nc1ncc(CCNc2ncnc3ccsc23)s1 + O=C(Nc1ccccc1)c1cc([N+](=O)[O-])ccc1Cl [GW9662] (first compound 0.0008 µM, partner dose 2 µM)",cell count,WM115,69.5%
same,cell count,WM1716,113%
same,cell count,WM1745,80.2%
same,cell count,WM3526,121%
same,cell count,WM3619,86%
same,cell count,WM451Lu,103%
"Cn1cncc1[C@@](N)(c1ccc(Cl)cc1)c1ccc2c(c1)c(-c1cccc(Cl)c1)cc(=O)n2C [tipifarnib] + N#Cc1c(O)c2c(-c3ccc(-c4ccccc4O)cc3)csc2[nH]c1=O [A769662] (first compound 0.01 µM, partner dose 2 µM)",cell count,WM115,92.6%
same,cell count,WM1716,74.8%
same,cell count,WM1745,86.7%
same,cell count,WM3526,110%
same,cell count,WM3619,79.6%
same,cell count,WM451Lu,88.6%
"COc1cc(Nc2ncc(F)c(Nc3ccc4c(n3)NC(=O)C(C)(C)O4)n2)cc(OC)c1OC [Tamatinib] + N#Cc1c(O)c2c(-c3ccc(-c4ccccc4O)cc3)csc2[nH]c1=O [A769662] (first compound 0.4 µM, partner dose 2 µM)",cell count,WM115,85.8%
same,cell count,WM1716,93%
same,cell count,WM1745,86.5%
same,cell count,WM3526,109%
same,cell count,WM3619,103%
same,cell count,WM451Lu,79.7%
"O=c1[nH]nc(Sc2ncc([N+](=O)[O-])s2)n1-c1ccc2c(c1)OCCO2 + Clc1ccc(Nc2nnc(Cc3ccncc3)c3ccccc23)cc1 [vatalanib] (first compound 0.2 µM, partner dose 2 µM)",cell count,WM115,87.5%
same,cell count,WM1716,89.2%
same,cell count,WM1745,88.2%
same,cell count,WM3526,85%
same,cell count,WM3619,88.8%
same,cell count,WM451Lu,83.6%
"O=c1[nH]nc(Sc2ncc([N+](=O)[O-])s2)n1-c1ccc2c(c1)OCCO2 + NC1(c2ccc(-c3nc4ccn5c(=O)[nH]nc5c4cc3-c3ccccc3)cc2)CCC1 [MK2206] (first compound 0.2 µM, partner dose 0.4 µM)",cell count,WM115,84.5%
same,cell count,WM1716,104%
same,cell count,WM1745,95.8%
same,cell count,WM3526,70.1%
same,cell count,WM3619,83.3%
same,cell count,WM451Lu,96.6%
"O=c1[nH]nc(Sc2ncc([N+](=O)[O-])s2)n1-c1ccc2c(c1)OCCO2 + C[C@@H](N)c1ccc(C(=O)Nc2ccnc3[nH]ccc23)cc1 [RKI983] (first compound 0.2 µM, partner dose 0.4 µM)",cell count,WM115,101%
same,cell count,WM1716,83%
same,cell count,WM1745,95.2%
same,cell count,WM3526,128%
same,cell count,WM3619,88.3%
same,cell count,WM451Lu,74.4%
"CC1(C)NC(=O)N(c2ccc([N+](=O)[O-])c(C(F)(F)F)c2)C1=O [nilutamide] + COc1cc(N2CCC(N3CCN(C)CC3)CC2)ccc1Nc1ncc(Cl)c(Nc2ccccc2S(=O)(=O)C(C)C)n1 [NVP-TAE684] (first compound 1 µM, partner dose 0.08 µM)",cell count,WM115,94.8%
same,cell count,WM1716,113%
same,cell count,WM1745,87.5%
same,cell count,WM3526,65.5%
same,cell count,WM3619,102%
same,cell count,WM451Lu,92.5%
"O=C(Nc1cccc(Cl)c1)Nc1ncc(CCNc2ncnc3ccsc23)s1 + N#Cc1c(O)c2c(-c3ccc(-c4ccccc4O)cc3)csc2[nH]c1=O [A769662] (first compound 0.0008 µM, partner dose 2 µM)",cell count,WM115,78.4%
same,cell count,WM1716,94%
same,cell count,WM1745,96.2%
same,cell count,WM3526,102%
same,cell count,WM3619,102%
same,cell count,WM451Lu,111%
"O=C(O)c1ccc(-c2c[nH]c3ncc(-c4ccccc4)cc23)cc1C1CCCC1 + COc1cc2ncnc(Nc3ccc(Oc4ccccc4)cc3)c2cc1OC [SrcI1] (first compound 0.16 µM, partner dose 2 µM)",cell count,WM115,93.2%
same,cell count,WM1716,108%
same,cell count,WM1745,92.8%
same,cell count,WM3526,89.2%
same,cell count,WM3619,96.8%
same,cell count,WM451Lu,114%
"O=C(O)c1ccc(-c2c[nH]c3ncc(-c4ccccc4)cc23)cc1C1CCCC1 + COc1ccc(-c2ccc3c(N4CCOCC4)nc(N4C[C@@H](C)O[C@@H](C)C4)nc3n2)cc1CO [KU0063794] (first compound 0.16 µM, partner dose 0.02 µM)",cell count,WM115,89.6%
same,cell count,WM1716,115%
same,cell count,WM1745,96.7%
same,cell count,WM3526,91.6%
same,cell count,WM3619,100%
same,cell count,WM451Lu,89%
"O=C(O)c1ccc(-c2c[nH]c3ncc(-c4ccccc4)cc23)cc1C1CCCC1 + CC(C)CCN1c2nc(Nc3cc(F)c(O)c(F)c3)ncc2N(C)C(=O)C1C [BID1870] (first compound 0.16 µM, partner dose 0.2 µM)",cell count,WM115,92.9%
same,cell count,WM1716,95.6%
same,cell count,WM1745,95.3%
same,cell count,WM3526,94.6%
same,cell count,WM3619,106%
same,cell count,WM451Lu,107%
"Cn1cncc1[C@@](N)(c1ccc(Cl)cc1)c1ccc2c(c1)c(-c1cccc(Cl)c1)cc(=O)n2C [tipifarnib] + c1cc(-c2cnn3cc(-c4ccc(OCCN5CCCCC5)cc4)cnc23)ccn1 [Dorsomorphin] (first compound 0.01 µM, partner dose 0.4 µM)",cell count,WM115,89.1%
same,cell count,WM1716,77.6%
same,cell count,WM1745,91.1%
same,cell count,WM3526,90.7%
same,cell count,WM3619,93.7%
same,cell count,WM451Lu,102%
"CC1(C)NC(=O)N(c2ccc([N+](=O)[O-])c(C(F)(F)F)c2)C1=O [nilutamide] + CC(C)(C)c1cnc(CSc2cnc(NC(=O)C3CCNCC3)s2)o1 [SNS-032] (first compound 1 µM, partner dose 0.01 µM)",cell count,WM115,98.7%
same,cell count,WM1716,96.7%
same,cell count,WM1745,84.7%
same,cell count,WM3526,102%
same,cell count,WM3619,107%
same,cell count,WM451Lu,86.1%
"C[C@@H]1CCN(C(=O)CC#N)C[C@@H]1N(C)c1ncnc2[nH]ccc12 + COc1cc(N2CCC(N3CCN(C)CC3)CC2)ccc1Nc1ncc(Cl)c(Nc2ccccc2S(=O)(=O)C(C)C)n1 [NVP-TAE684] (first compound 1 µM, partner dose 0.08 µM)",cell count,WM115,89.7%
same,cell count,WM1716,87.6%
same,cell count,WM1745,73.3%
same,cell count,WM3526,87.9%
same,cell count,WM3619,90.8%
same,cell count,WM451Lu,92.5%
"O=c1[nH]nc(Sc2ncc([N+](=O)[O-])s2)n1-c1ccc2c(c1)OCCO2 + CCN(CC)CCCCNc1ncc2cc(-c3cc(OC)cc(OC)c3)c(NC(=O)NC(C)(C)C)nc2n1 [PD173074] (first compound 0.2 µM, partner dose 0.1 µM)",cell count,WM115,106%
same,cell count,WM1716,100%
same,cell count,WM1745,99.6%
same,cell count,WM3526,106%
same,cell count,WM3619,82.2%
same,cell count,WM451Lu,112%
"COc1cc(Nc2ncc(F)c(Nc3ccc4c(n3)NC(=O)C(C)(C)O4)n2)cc(OC)c1OC [Tamatinib] + CCN(CC)CCCCNc1ncc2cc(-c3cc(OC)cc(OC)c3)c(NC(=O)NC(C)(C)C)nc2n1 [PD173074] (first compound 0.4 µM, partner dose 0.1 µM)",cell count,WM115,97.3%
same,cell count,WM1716,91.7%
same,cell count,WM1745,63.7%
same,cell count,WM3526,79.4%
same,cell count,WM3619,81.3%
same,cell count,WM451Lu,124%
"O=C(O)c1ccc(-c2c[nH]c3ncc(-c4ccccc4)cc23)cc1C1CCCC1 + Cn1cc(/C=C2\C(=O)Nc3cccnc32)c2ccccc21 [GW441756] (first compound 0.16 µM, partner dose 0.4 µM)",cell count,WM115,95%
same,cell count,WM1716,93.7%
same,cell count,WM1745,102%
same,cell count,WM3526,96.9%
same,cell count,WM3619,111%
same,cell count,WM451Lu,102%
"COc1cc(Nc2ncc(F)c(Nc3ccc4c(n3)NC(=O)C(C)(C)O4)n2)cc(OC)c1OC [Tamatinib] + CCCCCCCCCCCC1=C(O)C(=O)C=C(O)C1=O [Embelin] (first compound 0.4 µM, partner dose 1.2 µM)",cell count,WM115,89.5%
same,cell count,WM1716,92.8%
same,cell count,WM1745,77.3%
same,cell count,WM3526,59.8%
same,cell count,WM3619,100%
same,cell count,WM451Lu,87%
"CC1(C)NC(=O)N(c2ccc([N+](=O)[O-])c(C(F)(F)F)c2)C1=O [nilutamide] + O=C1NC(=O)/C(=C/c2ccc(-c3ccc(F)cc3O)o2)S1 [AS252424] (first compound 1 µM, partner dose 1 µM)",cell count,WM115,97.8%
same,cell count,WM1716,102%
same,cell count,WM1745,90.6%
same,cell count,WM3526,113%
same,cell count,WM3619,103%
same,cell count,WM451Lu,103%
"CC1(C)NC(=O)N(c2ccc([N+](=O)[O-])c(C(F)(F)F)c2)C1=O [nilutamide] + NC(=O)Nc1cc(-c2cccc(F)c2)sc1C(=O)N[C@H]1CCCNC1 [AZD7762] (first compound 1 µM, partner dose 0.02 µM)",cell count,WM115,93.3%
same,cell count,WM1716,91.7%
same,cell count,WM1745,113%
same,cell count,WM3526,54.8%
same,cell count,WM3619,77.2%
same,cell count,WM451Lu,80.4%
"COc1cc(Nc2ncc(F)c(Nc3ccc4c(n3)NC(=O)C(C)(C)O4)n2)cc(OC)c1OC [Tamatinib] + O=C(Nc1cccc(Cl)c1)Nc1ncc(CCNc2ncnc3ccsc23)s1 [SNS314] (first compound 0.4 µM, partner dose 0.0008 µM)",cell count,WM115,66.4%
same,cell count,WM1716,91.7%
same,cell count,WM1745,58%
same,cell count,WM3526,82.7%
same,cell count,WM3619,86.7%
same,cell count,WM451Lu,88.6%
"O=c1[nH]nc(Sc2ncc([N+](=O)[O-])s2)n1-c1ccc2c(c1)OCCO2 + Cn1sc(=O)n(Cc2ccccc2)c1=O [TDZD-8] (first compound 0.2 µM, partner dose 0.4 µM)",cell count,WM115,89.3%
same,cell count,WM1716,82.3%
same,cell count,WM1745,91.5%
same,cell count,WM3526,115%
same,cell count,WM3619,84.6%
same,cell count,WM451Lu,98%
"O=C(Nc1cccc(Cl)c1)Nc1ncc(CCNc2ncnc3ccsc23)s1 + COc1ccc(COc2ccc(Cc3cnc(N)nc3N)cc2OC)cc1 [GW2580] (first compound 0.0008 µM, partner dose 1 µM)",cell count,WM115,78.1%
same,cell count,WM1716,95.6%
same,cell count,WM1745,88%
same,cell count,WM3526,92.1%
same,cell count,WM3619,102%
same,cell count,WM451Lu,101%
"COc1cc(Nc2ncc(F)c(Nc3ccc4c(n3)NC(=O)C(C)(C)O4)n2)cc(OC)c1OC [Tamatinib] + COC(=O)c1sccc1S(=O)(=O)Nc1ccc(Nc2ccccc2)cc1OC [GSK0660] (first compound 0.4 µM, partner dose 1 µM)",cell count,WM115,89.8%
same,cell count,WM1716,99.3%
same,cell count,WM1745,67.3%
same,cell count,WM3526,102%
same,cell count,WM3619,99.3%
same,cell count,WM451Lu,94.1%
"Cn1cncc1[C@@](N)(c1ccc(Cl)cc1)c1ccc2c(c1)c(-c1cccc(Cl)c1)cc(=O)n2C [tipifarnib] + COc1cc2ncnc(Nc3ccc(Oc4ccccc4)cc3)c2cc1OC [SrcI1] (first compound 0.01 µM, partner dose 2 µM)",cell count,WM115,89.9%
same,cell count,WM1716,88%
same,cell count,WM1745,84.7%
same,cell count,WM3526,74.5%
same,cell count,WM3619,87.4%
same,cell count,WM451Lu,97.7%
